# Reference: PubChem BioAssay AID1508642 (National Center for Advancing Translational Sciences (NCATS), 2021)
# The whole screen tested about 43,000 compounds, of which about 200 (0.47%) were called active. About 12% were inconclusive and are not listed. The call rests on the fitted dose curve; in most records, active means well fitted cell-killing curve with a large enough effect; inconclusive means small, poorly fitted or top-dose-only effect, or effect the other way; inactive means flat fitted curve, though single readings scatter. This is one part of the list.
# Experiment: Cell viability qHTS assay in S16 Pmp22-F2sN cells; further: nearly all actives have a fitted effect of over 65% in size
# Conditions: S16 Pmp22-F2sN Schwann cells (luciferase reporters placed in the Pmp22 gene) viability, CellTiter-Glo, 24 h; series mostly up to 57.5 µM; activity change, negative = cytotoxicity: at the top concentration
# Method in brief: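 Seed 500-1,000 S16 Pmp22-F2sN cells per well in phenol-red-free DMEM with 10% heat-inactivated FBS; pin-add 23 nL compound; incubate 24 h at 37C; add CellTiter-Glo, wait 15 min protected from light; read luminescence.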
# On the % scale 0 is the no-effect control and ±100 the full control effect.
row,Structure (SMILES),"activity change, negative = cytotoxicity"
1,O=C(NCc1ccco1)C1CCN(C(=O)N2CCOc3ccc(Cl)cc32)CC1,inactive: -13.5%
2,O=S(=O)(NCCc1csc2nc(-c3ccc(Cl)cc3)nn12)c1ccc(Oc2ccccc2)cc1,inactive: -5.14%
3,CC(=O)c1cccc(NC(=O)CSc2nnc3ccc(-c4ccc(C)cc4)nn23)c1,inactive: 3.04%
4,Cc1ccccc1-c1nc(C(N)=O)c2c(n1)n(-c1ccc3c(c1)OCO3)c(=O)n2C,inactive: -3.48%
5,Cc1ccc(C)c(Cn2c(=O)n(Cc3ccc(C(=O)NC4CCN(Cc5ccccc5)CC4)cc3)c(=O)c3ccccc32)c1,inactive: 18.9%
6,Cc1cc2c(cc1S(=O)(=O)CCC(=O)NC1CCC(C)CC1)OCC(=O)N2 (configuration not stated),inactive: -2.92%
7,O=C1CC(c2nnc(Cc3ccc(Cl)cc3)o2)CN1c1ccccc1 (configuration not stated),inactive: 5.48%
8,CCn1c(=N)c(C(=O)NC2CCCCC2)cc2c(=O)n3cccc(C)c3nc21,inactive: 2.21%
9,O=c1cc2nc(-c3cccs3)nc(SCCOc3ccc(Cl)cc3)n2[nH]1,inactive: -18.8%
10,Cc1ccc(N2CCN(C(=O)NCc3noc4ccccc34)CC2C)cc1 (configuration not stated),inactive: -10.3%
11,COc1ccccc1N1CCN(C(=O)c2cnn(-c3ccc(C)c(C)c3)c2C2CCN(C(=O)OC(C)(C)C)CC2)CC1,inactive: 0.406%
12,COc1cc(Cl)c(C)cc1Nc1nc2ccccc2nc1NS(=O)(=O)c1ccccc1,inactive: -6.26%
13,CCCOc1ccc(C(=O)N(Cc2cccs2)c2ccc(C)cc2)cc1,inactive: -7.61%
14,COc1ccc(Cl)cc1S(=O)(=O)N1CCN(Cc2cccc(F)c2)CC1,inactive: 14.6%
15,CCOC(=O)c1c(C)oc2ncnc(NCCCN3CCN(c4cc(C)ccc4C)CC3)c12,inactive: -27.1%
16,CCOC(=O)c1ccc(NC(=O)C2CCN(C(=O)N3CC(C)Oc4ccc(C)cc43)CC2)cc1 (configuration not stated),inactive: -20.2%
17,COc1ccc(S(=O)(=O)n2nc(C)c(S(=O)(=O)N3CCCCCC3)c2C)cc1OC,inactive: 11.2%
18,Cc1ccccc1C(=O)Nc1nnc(SCc2cc(=O)n3ccccc3n2)s1,inactive: -1.99%
19,CCOc1ccc(C(=O)CSc2nnc3cc(C)c4ccccc4n23)cc1,inactive: -0.525%
20,CCOc1cc(C(=O)Nc2nnc3n2CCS3)cc(OCC)c1OCC,inactive: 12.5%
21,COc1ccccc1CNC(=O)COc1cc(=O)n(C)c2ccccc12,inactive: 4.94%

row,Structure (SMILES),"activity change, negative = cytotoxicity"
1,CN1CCN(C(=O)c2ccc3c(c2)N(Cc2c(F)cccc2Cl)C(=O)c2ccccc2S3)CC1,inactive: -5.96%
2,CCc1sc(Nc2ccc(Cl)cc2)nc1-c1cc2cccc(OC)c2oc1=O,inactive: -3.58%
3,COc1ccc(-c2noc(N3CCN(c4cccc(Cl)c4)CC3)n2)cc1OC,inactive: -5.57%
4,CC(C(=O)Nc1ccc(F)c(Cl)c1)N1Cc2ccccc2C1=O (configuration not stated),inactive: 7.15%
5,Cc1cc(OCC(=O)Nc2cc(-c3nc4ccccc4[nH]3)ccc2C)ccc1Cl,inactive: -10.5%
6,CCSc1oc(-c2ccc(F)cc2)nc1S(=O)(=O)c1ccc(C)cc1,inactive: -4.44%
7,CCCCC(CC)CNC(=O)c1ccc2c(=O)n(CCOC)c(=O)[nH]c2c1 (configuration not stated),inactive: -9.93%
8,Cc1ccc(N(CC(=O)NCC(C)c2ccccc2)S(=O)(=O)N(C)C)cc1 (configuration not stated),inactive: 6.59%
9,CC(=O)c1cccc(S(=O)(=O)N2CCN(c3ccccc3F)CC2)c1,inactive: -8.14%
10,Cc1cc(S(=O)(=O)C(CNC(=O)COc2ccccc2)c2cccs2)ccc1F (configuration not stated),inactive: 4.9%
11,Cc1ccc(-c2nn(CC(=O)NC3CCCC3)c3c2cnc2ccc(F)cc23)cc1C,inactive: 19.2%
12,CCOc1cc2sc(N3CCC(C(=O)Nc4ccccc4Cl)CC3)nc2cc1Br,inactive: 16.6%
13,COc1ccc(OCCSc2nc(C)c(Cc3ccccc3)c(=O)[nH]2)cc1,inactive: -2.98%
14,COc1ccccc1Cn1cc(C(=O)c2ccc(Cl)cc2)c(=O)c2cc3c(cc21)OCCO3,inactive: 1.42%
15,COc1ccc(Oc2nc3c(c(=O)n(C)c(=O)n3C)n2Cc2ccccc2Cl)cc1,inactive: -25.8%
16,COc1ccc(NC(=O)CCN2CCN(CCO)CC2)c(OC)c1,inactive: -1.62%
17,O=C(Nc1ccc2nc(SCc3ccccc3)sc2c1)c1cccc(F)c1,inactive: 7.77%
18,COc1cc(C2c3c(-c4c(C)cc(C)cc4O)n[nH]c3C(=O)N2CCO)cc(OC)c1OC (configuration not stated),inactive: 1.32%
19,CN(C)S(=O)(=O)c1ccc(C(=O)NCCS(=O)(=O)N2CCN(c3ccccc3)CC2)cc1,inactive: -5.07%
20,Cc1ccc(-c2cc(-c3ccc4c(c3)NC(=O)CO4)nc3c2COc2ccc(C)cc2-3)cc1,inactive: 19%
21,Cc1ccc(CN(C(=O)COc2ccc(Cl)c(C)c2)c2ccccn2)o1,inactive: -0.763%

row,Structure (SMILES),"activity change, negative = cytotoxicity"
1,O=C(CN1C(=O)COc2ccc(S(=O)(=O)N3CCOCC3)cc21)N1CCN(c2cccc(C(F)(F)F)c2)CC1,inactive: -1.64%
2,Cc1ccc(C(=O)/C=C/c2cn(CC(O)CN3CCc4ccccc43)c3ccccc23)cc1 (configuration not stated),inactive: 1.67%
3,COc1ccc(OC)c(CNC(=O)c2cc3cc4ccc(OC)cc4nc3o2)c1,inactive: 4.14%
4,Cc1cc(NC(=O)c2ccccc2Cl)ccc1NC(=O)c1ccccc1,inactive: -0.815%
5,COc1ccc(-c2noc(COc3cc(C)c(Br)c(C)c3)n2)cc1OC,inactive: 4.79%
6,COc1cccc(NC(=O)CSc2nc3c([nH]c4ccccc43)c(=O)n2-c2ccccc2)c1,inactive: -2.49%
7,CCOc1ccccc1NC(=O)CSc1nnc(N)s1,inactive: -1.74%
8,Cc1ccc(NC(=O)CSc2nnc(C)n3c2cc2sccc23)c(C)c1,inactive: 18.1%
9,Brc1ccc(-c2nnc3sc(CN4CCCCC4)cn23)cc1,inactive: 18.8%
10,Cc1ccccc1-c1nnc(CN2CCN(c3cccc(C)c3C)CC2)o1,inactive: 1.91%
11,COc1cc(C(=O)NCC(c2cccnc2)N2CCc3ccccc3C2)cc(OC)c1OC (configuration not stated),inactive: -17.2%
12,CCC(=O)Nc1ccccc1-c1nc2ccccc2n(CC(=O)c2ccc(C)c(C)c2)c1=O,inactive: 3.46%
13,COCCNC(=O)C(=O)NCC(c1cccnc1)N1CCN(c2ccccc2OC)CC1 (configuration not stated),inactive: 11.6%
14,Cc1ccc(CSc2ccc(-c3cccs3)nn2)cc1,inactive: -0.107%
15,O=C(NCc1ccccc1Cl)c1cc2c(s1)-c1ccccc1SC2,inactive: -13.6%
16,O=C(NCc1ccco1)c1c[nH]c2ccc(S(=O)(=O)Nc3ccc(F)cc3F)cc2c1=O,inactive: -1.31%
17,CCCCNc1nc2c(S(=O)(=O)c3ccc(Cl)cc3)nnn2c2ccsc12,inactive: -0.0981%
18,COc1cccc(CNC(=O)c2ccc3c(c2)N(Cc2ccc(C(F)(F)F)cc2)C(=O)c2ccccc2S3)c1OC,inactive: -5.25%
19,CN1CCN(C(=O)c2cnn(-c3cccc(Cl)c3)c2C2CCN(C(=O)OC(C)(C)C)CC2)CC1,inactive: -5.25%
20,CC(C)CCNC(=O)CN1C(=O)c2cccnc2Oc2ccccc21,inactive: 6.06%
